Reference: patent US11564922B2, “Methods of treating crohn's disease and ulcerative colitis” (AbbVie Inc., priority 2017, dated 2023)

Test system: patients with moderately to severely active Crohn's disease
Test: Example 8: randomized double-blind placebo-controlled study of upadacitinib, 16-week induction, Crohn's disease
Details: for Refractory patients achieving clinical remission at week 16, % / Refractory patients achieving endoscopic remission at 12 or 16 weeks, %: FIG. 9; for Steroid-free and CDAI < 150, Week 16 (NRI), % of patients / Steroid-free and clinical response, Week 16 (NRI), % of patients / Steroid-free remission, Week 16 (NRI), % of patients: among subjects taking steroids at BL; for CR70, Week 12 (NRI), % of patients / CR70, Week 16 (NRI), % of patients: decrease in CDAI score ≥70 from baseline; for CR100, Week 12 (NRI), % of patients / CR100, Week 16 (NRI), % of patients: decrease in CDAI score ≥100 from baseline

## CC[C@@H]1CN(C(=O)NCC(F)(F)F)C[C@@H]1c1cnc2cnc3[nH]ccc3n12 [upadacitinib, (3S,4R)-3-ethyl-4-(3H-imidazo[1,2-a]pyrrolo[2,3-e]pyrazin-8-yl)-N-(2,2,2-trifluoroethyl)pyrrolidine-1-carboxamide]
3 mg BID
  CDAI < 150, Week 12 (NRI), % of patients: 18.4%
  CDAI < 150, Week 16 (NRI), % of patients: (20.5%)
  CDAI<150 at end of 16 week induction among patients who discontinued corticosteroids, %: 19.0%
  Clinical remission at end of 16 week induction among patients who discontinued corticosteroids, %: 14.3%
  Endoscopic Improvement, patients evaluated at Week 16, %: 15.8%
  Endoscopic response at end of 16 week induction among patients who discontinued corticosteroids, %: 4.8%
  Modified clinical remission at end of 16 week induction among patients who discontinued corticosteroids, %: 14.3%
  Patients tapering corticosteroids able to discontinue steroids by week 4, %: 9.5%
  Patients tapering corticosteroids able to discontinue steroids by week 8, %: 23.8%
  Patients tapering corticosteroids able to reduce their steroid dose by ≥50% by week 4, %: 42.9%
  Patients tapering corticosteroids able to reduce their steroid dose by ≥50% by week 8, %: 42.9%
  Patients tapering corticosteroids able to reduce their steroid dose by ≥50% by week 12, %: 38.1%
  Patients tapering corticosteroids able to reduce their steroid dose by ≥50% by week 16, %: 38.1%
  Risk Difference vs PBO, Endoscopic Remission (week 12 or 16): 10.3
  Risk difference vs PBO, Clinical Remission (week 16): 2.0
  Refractory patients achieving clinical remission at week 16, %: 15.8%
  Refractory patients achieving endoscopic remission at 12 or 16 weeks, %: 13.2%
  Steroid-free and CDAI < 150, Week 16 (NRI), % of patients: (20.0%)
  Steroid-free and clinical response, Week 16 (NRI), % of patients: (25%)
  Steroid-free remission, Week 16 (NRI), % of patients: (0)%)
  CR70, Week 12 (NRI), % of patients: 38.5%
  CR70, Week 16 (NRI), % of patients: (46.2%)
  CR100, Week 12 (NRI), % of patients: 30.8%
  CR100, Week 16 (NRI), % of patients: (33.3%)
3 mg BID, SES-CD >50% reduction from BL or ≥2 point reduction or endoscopic remission
  Endoscopic Improvement (Week 12 or 16), % of patients: 12.8%
6 mg BID
  CDAI < 150, Week 12 (NRI), % of patients: 41.7%
  CDAI < 150, Week 16 (NRI), % of patients: (29.7%)
  CDAI<150 at end of 16 week induction among patients who discontinued corticosteroids, %: 22.2%
  Clinical remission at end of 16 week induction among patients who discontinued corticosteroids, %: 22.2%
  Endoscopic Improvement, patients evaluated at Week 12, %: 13.3%
  Endoscopic Improvement, patients evaluated at Week 16, %: 27.8%
  Endoscopic remission at end of 16 week induction among patients who discontinued corticosteroids, %: 11.1%
  Endoscopic response at end of 16 week induction among patients who discontinued corticosteroids, %: 16.7%
  Modified clinical remission at end of 16 week induction among patients who discontinued corticosteroids, %: 26.7%
  Patients tapering corticosteroids able to discontinue steroids by week 4, %: 11.1%
  Patients tapering corticosteroids able to discontinue steroids by week 8, %: 44.4%
  Patients tapering corticosteroids able to reduce their steroid dose by ≥50% by week 4, %: 50%
  Patients tapering corticosteroids able to reduce their steroid dose by ≥50% by week 8, %: 66.7%
  Patients tapering corticosteroids able to reduce their steroid dose by ≥50% by week 12, %: 61.1%
  Risk Difference vs PBO, Endoscopic Remission (week 12 or 16): 8.1
  Refractory patients achieving clinical remission at week 16, %: 30.3%
  Refractory patients achieving endoscopic remission at 12 or 16 weeks, %: 21.2%
  Steroid-free and CDAI < 150, Week 16 (NRI), % of patients: (22.2%)
  Steroid-free and clinical response, Week 16 (NRI), % of patients: (50%)
  Steroid-free remission, Week 16 (NRI), % of patients: (5.6%)
  CR70, Week 12 (NRI), % of patients: 59.5%*
  CR70, Week 16 (NRI), % of patients: (54.1%)
  CR100, Week 12 (NRI), % of patients: 51.4%*
  CR100, Week 16 (NRI), % of patients: (40.5%)
12 mg BID
  CDAI < 150, Week 12 (NRI), % of patients: 47.2%*
  CDAI < 150, Week 16 (NRI), % of patients: (38.9%)*
  CDAI<150 at end of 16 week induction among patients who discontinued corticosteroids, %: 41.2%
  Clinical remission at end of 16 week induction among patients who discontinued corticosteroids, %: 11.8%
  Endoscopic Improvement, patients evaluated at Week 16, %: 27.3%
  Endoscopic remission at end of 16 week induction among patients who discontinued corticosteroids, %: 5.9%
  Endoscopic response at end of 16 week induction among patients who discontinued corticosteroids, %: 17.6%
  Modified clinical remission at end of 16 week induction among patients who discontinued corticosteroids, %: 25.0%
  Patients tapering corticosteroids able to discontinue steroids by week 4, %: 11.8%
  Patients tapering corticosteroids able to discontinue steroids by week 8, %: 64.7%
  Patients tapering corticosteroids able to reduce their steroid dose by ≥50% by week 4, %: 82.4%
  Patients tapering corticosteroids able to reduce their steroid dose by ≥50% by week 8, %: 88.2%
  Patients tapering corticosteroids able to reduce their steroid dose by ≥50% by week 12, %: 88.2%
  Risk Difference vs PBO, Endoscopic Remission (week 12 or 16): 8.3
  Risk difference vs PBO, Clinical Remission (week 16): 0.3
  Refractory patients achieving clinical remission at week 16, %: 26.5%
  Steroid-free and CDAI < 150, Week 16 (NRI), % of patients: (38.9%)*
  Steroid-free and clinical response, Week 16 (NRI), % of patients: (44%)
  Steroid-free remission, Week 16 (NRI), % of patients: (5.6%)
  CR70, Week 12 (NRI), % of patients: 47.2%
  CR70, Week 16 (NRI), % of patients: (44.4%)
  CR100, Week 12 (NRI), % of patients: 41.7%
  CR100, Week 16 (NRI), % of patients: (44.4%)
12 mg BID dose group
  Adjudicated major adverse cardiac events (MACE): Two
24 mg BID
  CDAI < 150, Week 12 (NRI), % of patients: 38.9%
  CDAI < 150, Week 16 (NRI), % of patients: (30.6%)
  CDAI<150 at end of 16 week induction among patients who discontinued corticosteroids, %: 33.3%
  Clinical remission at end of 16 week induction among patients who discontinued corticosteroids, %: 33.3%
  Endoscopic Improvement, patients evaluated at Week 16, %: 25%
  Endoscopic remission at end of 16 week induction among patients who discontinued corticosteroids, %: 20%
  Endoscopic response at end of 16 week induction among patients who discontinued corticosteroids, %: 20%
  Modified clinical remission at end of 16 week induction among patients who discontinued corticosteroids, %: 36.4%
  Patients tapering corticosteroids able to discontinue steroids by week 4, %: 6.7%
  Patients tapering corticosteroids able to discontinue steroids by week 8, %: 53.3%
  Patients tapering corticosteroids able to reduce their steroid dose by ≥50% by week 4, %: 46.7%
  Patients tapering corticosteroids able to reduce their steroid dose by ≥50% by week 8, %: 66.7%
  Patients tapering corticosteroids able to reduce their steroid dose by ≥50% by week 12, %: 60%
  Risk Difference vs PBO, Endoscopic Remission (week 12 or 16): 22.2
  Risk difference vs PBO, Clinical Remission (week 16): 11.4
  Steroid-free and CDAI < 150, Week 16 (NRI), % of patients: (33.3%)*
  Steroid-free and clinical response, Week 16 (NRI), % of patients: (67%)
  Steroid-free remission, Week 16 (NRI), % of patients: (13.3%)
  CR70, Week 12 (NRI), % of patients: 58.3%*
  CR70, Week 16 (NRI), % of patients: (63.9%)*
  CR100, Week 12 (NRI), % of patients: 52.8%*
  CR100, Week 16 (NRI), % of patients: (55.6%)*
24 mg QD
  CDAI < 150, Week 12 (NRI), % of patients: 22.9%
  CDAI < 150, Week 16 (NRI), % of patients: (20.0%)
  Endoscopic Improvement, patients evaluated at Week 12, %: 12.5%
  Risk Difference vs PBO, Endoscopic Remission (week 12 or 16): 14.3
  Risk difference vs PBO, Clinical Remission (week 16): 3.5
  Steroid-free and CDAI < 150, Week 16 (NRI), % of patients: (10.0%)
  Steroid-free and clinical response, Week 16 (NRI), % of patients: (30%)
  Steroid-free remission, Week 16 (NRI), % of patients: (0%)
  CR70, Week 12 (NRI), % of patients: 51.4%
  CR70, Week 16 (NRI), % of patients: (48.6%)
  CR100, Week 12 (NRI), % of patients: 40.0%
  CR100, Week 16 (NRI), % of patients: (31.4%)
24 mg QD (two 12 mg BID doses given simultaneously)
  Refractory patients achieving clinical remission at week 16, %: 36.7%
24 mg QD (two 12 mg doses given simultaneously)
  Refractory patients achieving endoscopic remission at 12 or 16 weeks, %: 33.3%
16-week induction
  Treatment emergent deaths: no treatment emergent deaths
Clinical response, clinical remission, CDAI<150, endoscopic response, improvement and remission, FIGS. 3A-3I
  Relationship between upadacitinib plasma concentrations and efficacy endpoints: Exposure-response relationships were observed
Induction period
  Onset of clinical remission: as early as week 12
  Onset of endoscopic improvement: as early as week 12
Upadacitinib BID dose groups
  Infections compared to placebo: increased in all upadacitinib BID dose groups compared to placebo
Upadacitinib dose groups, 16-week induction
  Incident of adverse events, numerically higher compared to placebo: 3-13%
Week 16 (LOCF), FIG. 5A
  Decrease in hemoglobin, Crohn's subjects compared to RA patients: lower decreases in hemoglobin

Marks after values point to notes of the source that are not given here.
